From PubChem BioAssay AID504332 (National Center for Advancing Translational Sciences (NCATS), 2011)
Out of some 350,000 compounds screened, about 31,000 (8.9%) were called active. Inconclusive means that the source gave no clear call. Such entries were picked first, then a sample of the others. Calls come from the whole dose curve; as a rule, active = well fitted inhibition curve with a large enough effect; inconclusive = small, poorly fitted or top-dose-only effect; inactive = no such curve, though single readings can be large or run the other way. Potencies of inconclusive entries are doubtful fits and often do not repeat.

These molecules were tested against Histone-lysine N-methyltransferase EHMT2 (Homo sapiens) (UniProt Q96KQ7) (assay: qHTS Assay for Inhibitors of Histone Lysine Methyltransferase G9a). Settings: G9a H3K9 monomethylation, AlphaScreen, 2 h; activity, negative = inhibition: at 59 µM (top of the series) unless noted.
How it was run: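 Using a bead-based AlphaScreen, monomethylated H3K9 product from 2 h room-temperature reactions (G9a 20 nM, peptide 500 nM, SAM 20 uM) was detected with 0.5 ug/mL rabbit anti-H3K9me1 antibody.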
% is set by controls: 0 for no effect and ±100 for the full control effect; potency is the fitted concentration of half-maximal effect; tags give direction and shape of the fitted curve.
Note: nearly all actives have a fitted effect of over 75% in size.

Chain of UniProt Q96KQ7 (Q96KQ7 whole entry, looked up): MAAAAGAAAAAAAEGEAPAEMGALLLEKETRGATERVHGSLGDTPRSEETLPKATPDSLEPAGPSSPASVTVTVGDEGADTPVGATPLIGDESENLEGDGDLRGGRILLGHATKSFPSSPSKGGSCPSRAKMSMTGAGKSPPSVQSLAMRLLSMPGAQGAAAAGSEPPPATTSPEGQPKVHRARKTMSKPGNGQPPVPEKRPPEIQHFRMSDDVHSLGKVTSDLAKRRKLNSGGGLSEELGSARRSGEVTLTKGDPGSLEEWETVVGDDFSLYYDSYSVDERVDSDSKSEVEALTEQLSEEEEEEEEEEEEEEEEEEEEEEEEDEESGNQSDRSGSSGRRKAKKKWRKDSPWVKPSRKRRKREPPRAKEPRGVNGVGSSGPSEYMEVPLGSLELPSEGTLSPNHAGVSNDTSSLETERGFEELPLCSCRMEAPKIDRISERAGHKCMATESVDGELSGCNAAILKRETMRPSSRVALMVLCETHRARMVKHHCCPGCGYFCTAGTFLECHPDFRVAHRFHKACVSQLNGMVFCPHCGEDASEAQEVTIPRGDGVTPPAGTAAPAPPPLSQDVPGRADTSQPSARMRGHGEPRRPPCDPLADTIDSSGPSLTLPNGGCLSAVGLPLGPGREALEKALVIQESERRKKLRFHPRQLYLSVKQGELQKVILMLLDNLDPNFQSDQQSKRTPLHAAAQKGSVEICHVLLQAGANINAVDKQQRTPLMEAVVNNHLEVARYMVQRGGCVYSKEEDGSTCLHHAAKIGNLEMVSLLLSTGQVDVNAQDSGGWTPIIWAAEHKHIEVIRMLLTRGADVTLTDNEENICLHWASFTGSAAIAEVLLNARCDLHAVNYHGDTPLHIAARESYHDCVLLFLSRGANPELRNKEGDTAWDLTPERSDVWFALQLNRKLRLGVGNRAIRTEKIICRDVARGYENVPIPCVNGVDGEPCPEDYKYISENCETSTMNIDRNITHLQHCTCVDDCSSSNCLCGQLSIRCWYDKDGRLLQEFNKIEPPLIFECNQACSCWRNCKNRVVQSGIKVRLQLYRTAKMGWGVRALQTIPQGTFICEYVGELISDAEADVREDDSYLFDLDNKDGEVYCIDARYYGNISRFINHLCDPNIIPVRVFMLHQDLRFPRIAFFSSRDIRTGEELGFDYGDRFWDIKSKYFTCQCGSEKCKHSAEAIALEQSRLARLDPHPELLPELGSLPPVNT

Row | Structure (SMILES) | Potency | activity, negative = inhibition
1 | CN(C)C(CNc1ccc([N+](=O)[O-])cc1C#N)c1ccccc1 (centres undefined) | inconclusive: 56.2 µM [inhibitor, single point] | 
2 | COc1ccc(C(C)=O)cc1COC(=O)c1cnc(C)cn1 | inconclusive: 0.251 µM [inhibitor, full curve, poor fit] | 
3 | COC(=O)[C@@H]1[C@@H](C#N)C2(c3ccccc3-c3ccccc32)N(c2ccc(Cl)cc2)N1C#N | inconclusive: 31.6 µM [inhibitor, partial curve, poor fit] | 
4 | C/C(=N\NC(=O)CNC(=O)c1cccc(F)c1)c1ccc2ccccc2c1 | inactive | 
5 | Cc1cn2c(=O)c(S(=O)(=O)NCc3ccc(F)cc3)c(C)nc2s1 | inactive | 
6 | CCN(CC)c1ccc2c(Nc3ccccc3)c(C=O)c(=O)oc2c1 | inactive | 
7 | Oc1cccc(Nc2ncnc3c2oc2ccccc23)c1 | active: 50.1 µM | 
8 | COc1ccc(N2CCN(Cc3nc4c(c(=O)n(C)c(=O)n4C)n3CC(C)=O)CC2)cc1 | inconclusive: 31.6 µM [inhibitor, single point] | 
9 | CCOCCCNC(=S)N1CCN(c2nc(-c3ccccc3)cs2)CC1 | inconclusive: 89.1 µM [inhibitor, single point] | 
10 | Oc1ccccc1/C=N/N1CCN(c2ccccn2)CC1 | inactive | 
11 | CC(C)CN1C(=O)c2ccc(C(=O)Nc3ccccc3C(=O)O)cc2C1=O | inconclusive: 44.7 µM [inhibitor, partial curve, poor fit] | 
12 | COc1ccc(-c2c(C)nn3c(N4CCN(c5cc(Cl)ccc5C)CC4)cc(C)nc23)cc1OC | inactive | 
13 | Cc1ccn2c(Nc3ccc4c(c3)OCCO4)c(-c3ccc(N(C)C)cc3)nc2c1 | active: 8.91 µM | 
14 | CNc1sc(C(=O)c2cccs2)c(N)c1-c1nc2ccccc2s1 | inconclusive: 7.94 µM [inhibitor, full curve, poor fit] | 
15 | CCN1C=C(Cc2ccccc2C)C2=C(C1)C(c1ccccc1C)C(C#N)=C(N)O2 (centres undefined) | active: 14.1 µM | 
16 | COc1cc(-c2nn3c(-c4ccco4)nnc3s2)cc(OC)c1OC | inactive | 
17 | CCOc1ccc(-c2nnc(SCC(=O)N(CC)c3cccc(C)c3)o2)cc1 | inactive | 
18 | Cc1ccc(C(=O)NC(C)c2ccc(-n3ccnc3)cc2)cc1S(=O)(=O)N1CCOCC1 (centres undefined) | inconclusive: 89.1 µM [inhibitor, single point] | 
19 | COc1cc2[nH]c(=S)n(CCCN3CCOCC3)c(=O)c2cc1OC | inconclusive: 3.16 µM [inhibitor, single point] | 
20 | CCOC(=O)N1CCN(Cc2nc(N)nc(Nc3ccc(Oc4ccccc4)cc3)n2)CC1 | active: 31.6 µM | 
21 | Cc1ccc(C(=O)N/N=C\c2cc(Br)c(Br)o2)cn1 | active: 50.1 µM | 
22 | O=C(O)c1ccc2c(c1)-c1nc3ccccc3n1C2=O | active: 39.8 µM | 
23 | CC1CCN(CCOc2cc(Cl)ccc2Cl)CC1 | inconclusive: 8.91 µM [inhibitor, single point] | 
24 | COc1ccc(CNC(=O)C/C(C)=N/NC(=O)Cc2ccc(OC)cc2)cc1 | inconclusive: 1 µM [inhibitor, full curve] | 
25 | Cc1c(CN(C)Cc2cn(C)nc2-c2ccccc2F)[nH]c2ccccc12 | inconclusive: 56.2 µM [inhibitor, partial curve, poor fit] | 

Row | Structure (SMILES) | Potency | activity, negative = inhibition
26 | C=CCO/N=C/C1C(=O)CC(C)(C)CC1=O | active: 35.5 µM | 
27 | COc1ccc(/C=N/NC(=O)c2cc3c(OC)ccc(OC)c3[nH]2)cc1O | inconclusive: 2.51 µM [inhibitor, partial curve, poor fit] | 
28 | CCCc1cc(C(=O)NCC(C)C)no1 | inconclusive: 79.4 µM [inhibitor, partial curve, poor fit] | 
29 | CCC1(c2ccccc2)NC(=O)N(CC(=O)Nc2ccccc2N2CCCC2)C1=O (centres undefined) | active: 39.8 µM | 
30 | Cn1c(=S)ccc2ccccc21 | active: 10 µM | 
31 | CN(C)/C=C1/Nc2ccccc2C1=O | inconclusive: 2.24 µM [inhibitor, partial curve, poor fit] | 
32 | Cc1nc(NC(=S)NC(=O)COc2ccccc2Cl)ccc1Br | inconclusive: 2 µM [inhibitor, partial curve, poor fit] | 
33 | COCCCNC(=O)C1CCN(c2nc3ccc(Cl)cc3[nH]2)CC1 | inactive | 
34 | CSc1ccc(C2C(C#N)=C(N)Oc3c2ccc(=O)c2c(C)oc(C)c32)cc1 (centres undefined) | active: 31.6 µM | 
35 | COc1ccc(S(=O)(=O)Nc2cc(C)c(O)cc2C(C)C)cc1 | active: 25.1 µM | 
36 | O=C(NCCCn1ccnc1)C(=O)NCC(c1ccco1)N1CCN(c2ccc(F)cc2)CC1 (centres undefined) | inconclusive: 100 µM [inhibitor, single point] | 
37 | CCN(CC)C(=O)C1CCCN(c2ncnc3c2c(-c2ccccc2)cn3-c2cccc(C)c2)C1 (centres undefined) | inconclusive: 14.1 µM [inhibitor, partial curve] | 
38 | Cc1cccc(NC(=O)c2cnc3n(c2=O)CCS3)c1 | inactive | 
39 | COc1ccc(C(=O)NC(=S)Nc2ccc(N3CCOCC3)c(Cl)c2)cc1[N+](=O)[O-] | inconclusive: 8.91 µM [inhibitor, partial curve, poor fit] | 
40 | COC(=O)c1ccc2[nH]c([C@H](C)O)c([C@H](C)O)c2c1 | active: 44.7 µM | 
41 | Cc1cccc(NC(=O)N2CC=C(c3c[nH]c4ccccc34)CC2)c1C | inconclusive: 12.6 µM [inhibitor, partial curve, poor fit] | 
42 | C=CCn1cc(C(C)=O)c(=O)[nH]c1=O | inactive | 
43 | O=C(N/N=C/c1ccc(-c2ccccc2Cl)o1)c1ccccc1 | inactive | 
44 | Nc1nncn1C(=O)CCCOc1ccccc1 | inconclusive: 20 µM [inhibitor, single point] | 
45 | O=C(NCC1CC1)c1ccc(Nc2nc3ccc(Br)cc3[nH]2)cc1 | inconclusive: 39.8 µM [inhibitor, single point] | 
46 | O=S(=O)(c1cccs1)N1CCN(CC(O)COc2cccc(Br)c2)CC1 (centres undefined) | inconclusive: 8.91 µM [inhibitor, partial curve, poor fit] | 
47 | O=C(NC(Cc1ccccc1)C(=O)O)/C(=C/c1ccco1)NC(=O)c1cccc(Br)c1 (centres undefined) | inconclusive: 39.8 µM [inhibitor, single point] | 
48 | O=C1c2ccccc2C(O)N1Cc1ccc2c(c1)OCO2 (centres undefined) | inconclusive: 79.4 µM [inhibitor, single point] | 
49 | COc1cc(/C=C/C(=O)OCC(=O)N2CCN(S(=O)(=O)c3ccc(C)cc3C)CC2)ccc1O | inconclusive: 5.62 µM [inhibitor, partial curve] | 
50 | c1csc(-c2nc(NCCCN3CCOCC3)c3ccccc3n2)c1 | inconclusive: 50.1 µM [inhibitor, partial curve, poor fit] | 

Row | Structure (SMILES) | Potency | activity, negative = inhibition
51 | Cc1cc(/C=C2/NC(=O)NC2=O)c(C)n1-c1ccc(C#N)cc1 | inconclusive: 70.8 µM [inhibitor, partial curve] | 
52 | CCOc1ccc(OCC)c(NC(=O)c2cc(-c3cccs3)nc3ccccc23)c1 | inactive | 
53 | Cc1ccc(C2=NN(C(=O)CCl)C(c3cccs3)C2)o1 (centres undefined) | active: 12.6 µM | 
54 | CC(C)N1C(=O)/C(=C/c2nc3ccccc3c(=O)n2-c2ccccc2)c2ccccc21 | active: 10 µM | 
55 | CCOC(=O)C1(Cc2cccc(Cl)c2)CCCN(C(=O)c2ccco2)C1 (centres undefined) | inactive | 
56 | CCCSc1ncnc2c1c(-c1ccccc1)cn2-c1ccccc1OC | inactive | 
57 | CN1CCN2c3ccccc3Cc3ccccc3C2C1 (centres undefined) | active: 35.5 µM | 
58 | CCCC(=O)Nc1ccc(C(=O)NNC(=O)c2ccccc2Br)cc1 | active: 22.4 µM | 
59 | COCCN(C(=O)COC(=O)CCOc1cccc(C)c1)c1c(N)n(Cc2ccccc2)c(=O)[nH]c1=O | inconclusive: 89.1 µM [inhibitor, partial curve, poor fit] | 
60 | Cc1ccc(S(=O)(=O)N2CCOCC2)cc1NC(=O)CNCC1CCCCC1 | active: 10 µM | 
61 | COC1CCCCC1Nc1cccc(SC)c1 (centres undefined) | inconclusive: 35.5 µM [inhibitor, single point] | 
62 | CCOc1ccc(NC(=O)CNC(=O)c2nn(-c3ccc(OC)cc3)c(=O)c3ccccc23)cc1 | inactive | 
63 | O=c1c(N2CCN(c3cccc(Cl)c3)CC2)csc2ccc(Cl)cc12 | inactive | 
64 | COc1ccc(C2C(C#N)=C(N)SC(N)=C2C#N)cc1OC | inconclusive: 1.78 µM [inhibitor, partial curve, poor fit] | 
65 | COc1cccc(OC)c1OC(=O)/C=C/c1ccc(C)o1 | active: 50.1 µM | 
66 | COC(=O)c1[nH]c2ccc(C)cc2c1NC(=O)C1=COCCO1 |  | inconclusive: -76.9% [inhibitor]
67 | CN(C)S(=O)(=O)N1CCN(C(=O)c2ccc3c(c2)OCO3)CC1 | inactive | 
68 | Cc1ccc(C)c(CN2C(=O)c3ccccc3S(=O)c3ccc(C(=O)NCCCN4CCCC4)cc32)c1 (centres undefined) | inconclusive: 70.8 µM [inhibitor, single point] | 
69 | CCCc1cc(=O)oc2cc(C)cc(OCC(=O)NC(Cc3c[nH]c4ccc(O)cc34)C(=O)O)c12 (centres undefined) | inconclusive: 35.5 µM [inhibitor, full curve, poor fit] | 
70 | CC(=O)NC1=NN(C(C)=O)C(C)(c2cccnc2)S1 (centres undefined) | active: 44.7 µM | 
71 | c1ccc2c(N3CCCCC3)nnc(N3CCCCC3)c2c1 | inactive | 
72 | NS(=O)(=O)c1ccc(NC(=O)CSc2cn[nH]n2)cc1 | active: 44.7 µM | 
73 | CCC(=O)c1ccc(N2CCN(C(=O)c3cc([N+](=O)[O-])ccc3N3CCN(C)CC3)CC2)c(F)c1 | inconclusive: 70.8 µM [inhibitor, partial curve] | 
74 | O=C(NCC(=O)N1CCN(S(=O)(=O)/C=C/c2ccccc2)CC1)c1ccccc1F | inactive | 
